Assay results as given in PubChem BioAssay AID485297 (National Center for Advancing Translational Sciences (NCATS), 2010).
Hit rate of the full screen: of about 320,000 compounds, about 9,100 (2.8%) were called active. Inconclusive results, whose numbers are uncertain, are shown with a selection of clear calls. Calls follow the shape of the dose curve; as a rule, active = well fitted activation curve with a large enough effect; inconclusive = small, poorly fitted or top-dose-only effect; inactive = no such curve, though single readings can be large or run the other way. Potencies of inconclusive entries are left out as doubtful fits.
Potency is read from the fitted curve at half-maximal effect; tags tell the direction and shape of the fitted curve.

Assay: qHTS Assay for Rab9 Promoter Activators; also: nearly all actives have a fitted effect of over 60% in size; as to activation, negative = inhibition: % of control where 0% means no effect
Details: Huh7 Rab9 promoter-luciferase reporter, luminescence, 24 h; series mostly up to 9.22 µM; activation, negative = inhibition: at the top concentration
Summary of the method: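 Cells were plated at 1500 per well in reduced-serum medium with 10% FBS and left 2 h. Compound in DMSO was then added for 24 h at 37 °C. Reporter signal was read by luminescence after 10 min with luciferase detection reagent.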
In the case of CC(C)C(C(=O)NC1CCCC1)N(CC1CCCO1)C(=O)CNS(=O)(=O)c1ccccc1 (configuration not stated), the “activation, negative = inhibition” value is reported as inactive: 1.24%.
With COc1cc(CN(C)Cc2cc(=O)oc3cc(C)c(Cl)cc23)ccc1OC(F)F the Potency was inconclusive [activator, partial curve].
With CC(=O)O[C@H]1Cc2ccccc2N(C(N)=O)c2ccccc21 the “activation, negative = inhibition” value was inactive: -7.31% [at 46.1 µM].
For CCN(CC)c1ccc2cc(C(N)=O)c(=O)oc2c1, the “activation, negative = inhibition” value was inactive: 27%.
For O=C(NCc1csc(-c2cccs2)n1)C1CC1, the Potency was inconclusive [activator, partial curve].
For CC(=O)Nc1cc2c(cc1NC(=O)Cn1nnc(-c3ccc(C)o3)n1)OCCO2, the Potency was inconclusive [activator, single point].
With Cc1ccc(/C=C2\SC(=S)N(/N=C/c3cc([N+](=O)[O-])ccc3O)C2=O)o1 the “activation, negative = inhibition” value was inactive: -6.01%.
With O=C(NC1CCCC1)C(c1cc2c(cc1[N+](=O)[O-])OCO2)N1CCCC1 (configuration not stated) the Potency was inconclusive [activator, partial curve, poor fit].
For Cc1nc(S/C(=C/c2ccc(-c3cccc(Cl)c3)o2)C(=O)O)n[nH]1, the “activation, negative = inhibition” value was inactive: 3.58%.
With Cc1ccc(-c2nnc(-c3cccc(Br)c3)o2)cc1 the Potency was inconclusive [activator, single point].
With COc1ccc(-c2cc3nc4ccccc4n3c(N)c2C#N)cc1 the Potency was active: 2 µM.
In the case of CC(C)CCNC(=S)Nc1ccc(Br)cc1, the “activation, negative = inhibition” value is reported as inactive: 20.5%.
In the case of CC1CCN(c2ccc3nnc(CCC(=O)N4CCN(c5ccc(F)cc5)CC4)n3n2)CC1, the “activation, negative = inhibition” value is reported as inactive: -6.11%.
With CCC(=O)Nc1ccc(-c2cc3ccccc3oc2=O)cc1 the Potency was inconclusive [activator, partial curve].
In the case of COc1ccc(NC(=O)c2[nH]c(C)c(C(C)=O)c2C)cc1Cl, the Potency is reported as inconclusive [activator, partial curve].
For Cc1cc(NC(=O)c2ccccc2F)cc(C)c1OCC(=O)N1CCOCC1, the “activation, negative = inhibition” value was inactive: 12.8%.
For Cc1cc2cc3c(cc2nc1SCC(=O)N1CCOCC1)OCO3, the “activation, negative = inhibition” value was inactive: 3.33%.
For Cc1ccc(SCC(=O)Nc2ccc(N3CCN(C)CC3)c(F)c2)c(C)c1, the “activation, negative = inhibition” value was inactive: 4.23%.
For Cc1ccc(Nc2nc(CSc3nnc(-c4ccccc4)n3C)cs2)cc1, the Potency was inconclusive [activator, single point].
With O=C(NC(=O)c1ccccc1)Nc1ccc(Cl)cn1 the Potency was active: 1 µM.
With CCCc1cc(=O)n2[nH]c(-c3ccc(Br)cc3)cc2n1 the Potency was active: 3.55 µM.
With O=c1[nH]ncc(N/N=C\c2ccncc2)c1Cl the “activation, negative = inhibition” value was inactive: -4.93%.
In the case of COC(=O)c1ccccc1NC(=O)Cn1cc2c(n1)CCC(C)C2 (configuration not stated), the Potency is reported as inconclusive [activator, single point].
For COc1ccccc1N1CCN(/N=C\c2sccc2C)CC1, the Potency was inconclusive [activator, partial curve].
For Cc1ccc(NC(=S)N2CCN(C(=O)C3CCCO3)CC2)c(C)c1 (configuration not stated), the “activation, negative = inhibition” value was inactive: 12.1%.
In the case of O=C(/C=C/NNC(=O)c1ccccc1)c1ccc(Br)cc1, the “activation, negative = inhibition” value is reported as inactive: -0.104%.
With COc1ccc(CC(=O)c2ccc(O)cc2O)cc1 the Potency was inconclusive [activator, single point].
For COC(=O)C(C(=O)OC)c1ccc(NC(=O)c2cccc(Cl)c2)cc1, the Potency was inconclusive [activator, single point].
With Cc1cccc(OCC(=O)Nc2nccs2)c1C the Potency was active: 0.355 µM.
For O=C(N/N=C/c1c(Cl)cccc1Cl)c1n[nH]c2c1CCCC2, the Potency was active: 2.82 µM.
For Cc1csc(Nc2ccccc2)n1, the Potency was inconclusive [activator, single point].
In the case of CC(C)c1cc(C(=O)N/N=C/c2ccco2)n[nH]1, the Potency is reported as inconclusive [activator, single point].
In the case of Cn1ncc(Br)c1N1C(=O)CCC1=O, the “activation, negative = inhibition” value is reported as inactive: -2.22%.
In the case of CC(=O)N(C)c1ccc(NC(=O)/C=C/c2ccccc2Cl)cc1, the Potency is reported as inconclusive [activator, single point].
In the case of COc1cccc(COc2ccc3c(C)cc(=O)oc3c2)c1, the Potency is reported as active: 2.82 µM.
With Cc1cccc(N2CC(C(=O)Nc3ccc(S(=O)(=O)NCC4CCCO4)cc3)CC2=O)c1C (configuration not stated) the Potency was inconclusive [activator, single point].
In the case of c1ccc2oc(-c3ccn[nH]3)cc2c1, the Potency is reported as active: 3.16 µM.
For Clc1ccc(-c2nnc(CCc3ccccc3)o2)c(Cl)c1, the Potency was active: 2 µM.
With Clc1ccc(-c2nc3ccccc3[nH]2)cn1 the Potency was inconclusive [activator, single point].
For COc1ccc(Cc2nnc(NC(=O)Nc3ccc(C)cc3)s2)cc1OC, the Potency was inconclusive [activator, single point].
In the case of Nc1[nH][nH]c(=O)c1N=Nc1ccc2c(c1)OCO2, the Potency is reported as active: 3.55 µM.
In the case of COc1ccccc1C(=O)O/N=C(\N)c1ccccn1, the Potency is reported as active: 1.26 µM.
In the case of Cc1cccc2c1-c1sc(C(=O)Nc3ccccc3N3CCN(C)CC3)cc1CO2, the “activation, negative = inhibition” value is reported as inactive: -4.74%.
In the case of CC(C)Cn1nc(NC(=O)c2cccs2)c2cc3ccccc3nc21, the “activation, negative = inhibition” value is reported as inactive: -0.904%.
In the case of CC(=O)c1ccc(NC(=O)c2ccn(C(=O)OCC(C)C)n2)cc1, the Potency is reported as inconclusive [activator, partial curve].
In the case of CCCCNC(=O)c1cc(-c2ccc(F)cc2)on1, the Potency is reported as active: 3.98 µM.
With Cc1cc(=O)oc2cc(OCC(=O)Nc3ccccc3C(=O)O)ccc12 the “activation, negative = inhibition” value was inactive: 0.322%.
For O=c1c2c(nc3cc(-c4ccc(Cl)cc4)[nH]n13)CCS2, the Potency was inconclusive [activator, single point].
With COCCSc1nnc(NC(=O)C(C)(C)C)s1 the Potency was inconclusive [activator, single point].
With O=C(NC(=S)Nc1ccccc1)c1ccc(Br)o1 the Potency was inconclusive [activator, single point].
With Cc1ccsc1C=C1C(=O)c2ccccc2C1=O the Potency was inconclusive [activator, partial curve].
With CC(=O)n1c2ccccc2c2nc3ccccc3nc21 the Potency was active: 2.82 µM.
For CCOC(=O)c1csc(NC(=O)c2ccc(OCC)cc2)n1, the Potency was inconclusive [activator, full curve, poor fit].
With CCS/C(N)=N/N=C/c1cc(C)ccc1O the Potency was inconclusive [activator, full curve].
With O=C(N/N=C/c1ccc(Br)s1)c1ccccn1 the Potency was active: 1.41 µM.
For CCOC(=O)c1ccc(N2C(=O)c3n[nH]c(-c4ccco4)c3C2c2cccc([N+](=O)[O-])c2)cc1 (configuration not stated), the “activation, negative = inhibition” value was inactive: -10.8%.
In the case of COc1ccc(N2Cc3ccccc3C2)cc1Cl, the Potency is reported as inconclusive [activator, single point].
With O=C(CSc1ccccc1)Nc1nccs1 the Potency was inconclusive [activator, single point].
In the case of COC(=O)c1ccc(-c2nc3cc(N)ccc3o2)cc1, the Potency is reported as inconclusive [activator, full curve].
For O=C(NOCc1ccccc1)c1ccc(Cl)cc1Cl, the Potency was active: 0.398 µM.
For CC(C)c1ccc(C(=O)NCc2ccc(Cl)cc2)cc1, the Potency was inconclusive [activator, partial curve].
With Cc1cc(C(=O)Nc2nnc(C3CC3)s2)c(C)s1 the Potency was inconclusive [activator, partial curve].
With Cc1ccc(C)c(-c2cc(C(=O)Nc3cccc(C(=O)O)c3)c3ccccc3n2)c1 the “activation, negative = inhibition” value was inactive: -2.61%.
For Cc1ccc(SCCCCN2CCNCC2)cc1, the Potency was inconclusive [activator, single point].
With CC(=O)Nc1nc2c(s1)C(=O)NCCC2 the “activation, negative = inhibition” value was inactive: -3.89%.
For COc1ccc(N/C=C\C(=O)c2ccc3ccccc3c2)cc1, the Potency was active: 2.82 µM.
With CCOC(=O)c1ccc2nc(NC(=O)c3cccs3)sc2c1 the Potency was active: 0.501 µM.
In the case of CCOc1ccccc1-n1nnnc1SCC(=O)NC(=O)NCc1ccco1, the “activation, negative = inhibition” value is reported as inactive: -1.04%.
With COC(=O)c1ccccc1NC(=O)c1cc(-c2ccco2)on1 the Potency was inconclusive [activator, partial curve].
In the case of CSc1ccccc1NC(=O)C(=O)c1c[nH]c2ccccc12, the Potency is reported as inconclusive [activator, single point].
In the case of O=C(Nc1nccs1)c1ccc(N2CCOCC2)c([N+](=O)[O-])c1, the Potency is reported as active: 2.24 µM.
With CN(C)/C=C1\C(=O)N(c2ccc(Cl)c(Cl)c2)CS1(=O)=O the Potency was inconclusive [activator, partial curve].
For N#C/C(=N\Nc1ccc(F)cc1)C(=N)N1CCCCCC1, the Potency was active: 0.891 µM.
For Cc1cccc(Nc2nc(-c3ccncc3)cs2)c1, the Potency was inconclusive [activator, single point].
With CC(=O)c1c(C)nc(Nc2nc3ccccc3s2)nc1C the Potency was inconclusive [activator, single point].
With Cc1nc(-c2ccc(F)cc2)c(CC(=O)N2CCN(S(=O)(=O)c3cccc(F)c3)CC2)s1 the “activation, negative = inhibition” value was inactive: -3.02%.
With C=C(C)CNC(=S)N1CCN(C(c2ccccc2)c2ccccc2)CC1 the “activation, negative = inhibition” value was inactive: 13%.
For O=C(Cc1cccs1)Nc1ccc(-c2nnc(-c3ccco3)o2)cc1, the Potency was inconclusive [activator, single point].
In the case of Nc1ccc2nc(Cc3ccccc3)[nH]c2c1, the “activation, negative = inhibition” value is reported as inactive: 2.34%.
With O=C(O)c1ccc(N=N/C(=N\Nc2ccc(C(=O)O)cc2)c2ccccc2)cc1 the Potency was inconclusive [activator, partial curve].
In the case of CCOc1ccc(NC(=O)CN(C)C(=O)c2ccc(-c3ccc(C(C)=O)cc3)o2)cc1OCC, the Potency is reported as inconclusive [activator, single point].
In the case of CCN(CC)CCN(C(=O)c1ccc2ncsc2c1)c1nc2cc3c(cc2s1)OCO3, the Potency is reported as inconclusive [activator, partial curve].
